Source: the supplement of paper PMC3334620
In all, about 33,000 sequences were measured (“E-score (-0.5 to 0.5)”: median about -0.043, highest 2% from about 0.37 on). The list shows a part of the results.

target: T1, Upc2 (UniProt Q12151); test: PBM E-score (8-mer binding enrichment) (E-score (-0.5 to 0.5)); higher = stronger / more preferred TF binding; most listed sequences are background and not binding sites; conditions: protein concentration: 200 nM; construct: GST-full length
T1 sequence: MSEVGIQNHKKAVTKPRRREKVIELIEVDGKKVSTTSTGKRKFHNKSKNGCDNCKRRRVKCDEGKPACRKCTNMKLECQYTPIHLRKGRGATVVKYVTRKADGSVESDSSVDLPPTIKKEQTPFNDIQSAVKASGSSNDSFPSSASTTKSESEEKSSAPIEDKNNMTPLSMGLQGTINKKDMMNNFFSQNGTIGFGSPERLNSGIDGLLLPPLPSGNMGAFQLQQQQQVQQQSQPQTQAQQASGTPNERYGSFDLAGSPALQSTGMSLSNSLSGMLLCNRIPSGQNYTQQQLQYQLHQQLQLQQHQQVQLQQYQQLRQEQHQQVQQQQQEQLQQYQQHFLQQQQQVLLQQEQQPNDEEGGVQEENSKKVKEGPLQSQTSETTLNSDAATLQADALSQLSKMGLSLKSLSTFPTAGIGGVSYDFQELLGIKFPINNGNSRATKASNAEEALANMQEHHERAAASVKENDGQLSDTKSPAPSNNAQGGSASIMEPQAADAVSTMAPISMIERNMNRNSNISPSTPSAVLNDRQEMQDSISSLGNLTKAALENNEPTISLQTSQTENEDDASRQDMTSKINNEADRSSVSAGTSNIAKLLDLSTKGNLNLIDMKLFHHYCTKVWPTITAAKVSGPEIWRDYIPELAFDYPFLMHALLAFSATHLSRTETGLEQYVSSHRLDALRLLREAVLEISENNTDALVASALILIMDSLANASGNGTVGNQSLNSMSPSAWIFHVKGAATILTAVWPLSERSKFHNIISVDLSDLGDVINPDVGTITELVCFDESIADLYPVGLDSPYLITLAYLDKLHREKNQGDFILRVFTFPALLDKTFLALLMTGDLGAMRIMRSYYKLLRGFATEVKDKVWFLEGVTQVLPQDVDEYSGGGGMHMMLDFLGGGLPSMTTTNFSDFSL
Summary of the method: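 Full-length yeast transcription factors or their DNA-binding domains, GST-tagged and expressed with PURExpress, were applied at about 100-200 nM to universal all-10-mer Agilent arrays. These arrays had been made double-stranded by primer extension on fresh or once-stripped slides. Detection used fluorescent anti-GST, normalisation used masliner, and E-scores for ungapped eight-base words pooled with reverse complements came from the Universal PBM Analysis Suite.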

| Sequence | PBM E-score |
| --- | --- |
| TTCCTCAA | -0.177 |
| ACAGCTGG | -0.0318 |
| GTAAAAGA | 0.256 |
| GAAAGCGC | -0.0722 |
| GAACCTTC | -0.112 |
| AGATTCGC | 0.0823 |
| ATACCACG | 0.0605 |
| ATGGCGTG | -0.0735 |
| CCTAGACG | 0.0559 |
| CTAATTTA | 0.154 |
| CACTGCAG | -0.19 |
| CGTGTACA | 0.158 |
| CACTTTAA | 0.0393 |
| CTGCGGAA | -0.172 |
| AGCGCGAA | 0.0369 |
| GATATTCA | -0.0996 |
| AATTAGCT | 0.0368 |
| GCCCCCCC | -0.12 |
| CTCTCACC | -0.149 |
| ACAGCCCT | -0.257 |
| CGACATCG | 0.142 |
| GTTATCTA | 0.0623 |

| Sequence | PBM E-score |
| --- | --- |
| GACCAGCA | -0.252 |
| AACACCGT | 0.141 |
| TCCTTGAA | -0.0441 |
| AGGGTTCG | 0.0266 |
| TATTGACA | -0.0311 |
| ACGGATAT | 0.219 |
| CCAGGTCC | -0.0943 |
| CGATAGCG | 0.0616 |
| CCAGCGGA | -0.0985 |
| ACTAAATA | 0.0972 |
| ACGCATGC | 0.15 |
| CCCTCTTA | 0.0709 |
| AAGGCTTG | -0.113 |
| CAACGTAC | 0.237 |
| CCAAATAC | 0.0506 |
| ACAACACT | 0.0862 |
| ACGCCGTA | 0.354 |
| GGATGTTA | -0.0267 |
| CTCGGAAA | 0.229 |
| CTTGCAGA | -0.17 |
| AGGGGTAT | -0.216 |
| CTATAATA | -0.055 |

| Sequence | PBM E-score |
| --- | --- |
| CAAGCATA | -0.091 |
| GTCGCGGA | -0.0193 |
| AACATAGC | -0.212 |
| GCATAGGC | -0.139 |
| CACATCCA | 0.00264 |
| GCTTCGGA | 0.102 |
| GATTATGA | -0.0808 |
| CAAGTTCA | -0.0346 |
| CCGTTCGA | 0.13 |
| CGCGGCTC | 0.0204 |
| CTGCAGAA | 0.00637 |
| CATGGCGG | -0.203 |
| ATACAGAA | 0.0139 |
| CCGTGGCG | -0.122 |
| CCTTAAAG | -0.0314 |
| AGCTGGTG | 0.0458 |
| CATTTAGG | -0.285 |
| CATAACCC | -0.127 |
| CTTGCAAA | 0.0329 |
| GAATTGTA | 0.0594 |
| AGAAACAA | -0.0188 |
| CAGATGCA | -0.205 |

| Sequence | PBM E-score |
| --- | --- |
| AACCACGA | -0.102 |
| GTTGGGTA | 0.0587 |
| GGAGGCTA | -0.176 |
| CCCAAGGC | -0.0648 |
| ATAATCGC | 0.069 |
| ACATTAAG | -0.0138 |
| CCCGCCGA | -0.0993 |
| ACCGGTTA | 0.118 |
| ACCACGGG | -0.109 |
| AATTTTAC | 0.215 |
| GTGTTATA | 0.104 |
| CCAAAAAG | -0.218 |
| ATCGCATG | -0.00273 |
| AATGTGGC | 0.0351 |
| AAGATACT | -0.0277 |
| ACCCTCAG | -0.26 |
| GCGAGCGA | 0.226 |
| CGTATAAG | 0.481 |
| ATCTGACG | -0.271 |
| ACGACAGC | 0.336 |
